Measured values from paper PMC9885069 (Scientific Reports, 2023).

Excerpt: […] . NPCs were utilized in this initial screen for two reasons; (i) the need to employ a platform composed of CNS cells, and (ii) the higher susceptibility of NPCs to HSV-1 when compared to neurons. Human NPCs were derived from iPSCs as previously described. NPCs were infected with an HSV-1 construct (DualF) expressing enhanced green fluorescent protein (EGFP) and monomeric red fluorescent protein (RFP) under the control of the viral promoters ICP0 and Glycoprotein C, respectively, at a multiplicity of infection (MOI) of 0.1, as detailed in the Experimental section B. The expression of the fluorescent reporter genes EGFP and RFP were considered as proxies of viral gene expression. […] […] . 9001: 424-fold).

Compound: COc1ccc2c(c1)[C@H]1C[C@H](O)[C@@H](O)[C@@H](O)[C@@H]1NC2=O [Compound 5, (2S,3R,4S,4aR,10bR)-2,3,4-Trihydroxy-9-methoxy-1,3,4,4a,5,10b-hexahydrophenanthridin-6(2H)-one]
- solubility in DMSO: incompletely soluble in DMSO
